# Reference: the supplement of paper PMC3334620
# Whole data set: some 33,000 sequences, median “E-score (-0.5 to 0.5)” near -0.036, cut for the highest 2% near 0.37. Some of the results follow.
# Biological target: T1, Yer064c (UniProt P40041)
# T1 sequence: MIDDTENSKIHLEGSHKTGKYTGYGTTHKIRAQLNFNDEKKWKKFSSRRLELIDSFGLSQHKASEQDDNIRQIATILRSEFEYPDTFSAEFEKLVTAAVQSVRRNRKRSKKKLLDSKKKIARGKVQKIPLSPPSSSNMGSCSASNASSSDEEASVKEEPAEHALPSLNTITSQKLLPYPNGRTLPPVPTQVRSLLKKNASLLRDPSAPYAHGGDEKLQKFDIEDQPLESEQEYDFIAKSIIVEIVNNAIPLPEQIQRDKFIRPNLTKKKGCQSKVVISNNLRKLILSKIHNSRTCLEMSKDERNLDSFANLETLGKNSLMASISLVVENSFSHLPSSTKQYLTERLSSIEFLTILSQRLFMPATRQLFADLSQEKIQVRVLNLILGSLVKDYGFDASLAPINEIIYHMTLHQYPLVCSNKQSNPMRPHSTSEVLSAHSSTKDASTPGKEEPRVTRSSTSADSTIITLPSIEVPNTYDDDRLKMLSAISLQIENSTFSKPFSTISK
# Experiment: PBM E-score (8-mer binding enrichment) (E-score (-0.5 to 0.5)); higher = stronger / more preferred TF binding; most listed sequences are background and not binding sites
# Conditions: protein concentration: 200 nM; construct: GST-full length
# Method in brief: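 Each ungapped eight-base word and its reverse complement, pooled, received an E-score from the Universal PBM Analysis Suite. Underlying scans, normalised with masliner, recorded fluorescent anti-GST bound to GST-tagged yeast transcription factors. These were applied at about 100-200 nM to universal all-10-mer Agilent arrays double-stranded by primer extension.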
row,Sequence,PBM E-score
1,CCGGCCCC,-0.188
2,GTTATACA,0.0307
3,AACTGTAC,-0.128
4,GTGAATCA,0.48
5,AGCGAATA,0.0298
6,CTGATGTA,0.00184
7,TCAATGCA,0.0319
8,AGACGTCT,-0.229
9,AAATGTGT,0.197
10,AAATTCAC,-0.131
11,AGTTCGAG,0.00281
12,CACCGAAG,0.137
13,ATGATCCC,0.0441
14,GGCTAAAC,0.14
15,TGGTTGAA,-0.0755
16,GATAAATA,0.0251
17,GGATTATA,0.0308
18,GGGCGCAA,-0.27
19,AACGTCAC,-0.0191
20,ATCATGCG,0.294
21,CGGAGCAC,-0.259
22,CGCAAGGC,-0.25

row,Sequence,PBM E-score
1,ATCCTACA,-0.106
2,CGCGGGTC,0.00647
3,ACGGGGAG,-0.0271
4,CGTAACAG,-0.159
5,ATTCAAAG,0.106
6,CCTTAGTA,-0.0218
7,CAACGACA,-0.00606
8,CAGACCTA,-0.0381
9,AACTCCGC,-0.0186
10,CTCGAAAA,-0.0314
11,CAAAAACG,0.0885
12,CAACCAAG,-0.0316
13,CGGGGGCA,-0.272
14,GAACGATA,-0.0837
15,ACATGAGC,0.046
16,AGATACCC,0.036
17,CGCTCATA,0.0583
18,AAGCCCGG,-0.22
19,GACGAATC,0.147
20,AGTAACAG,0.0438
21,AAACCCTA,-0.146
22,CAGACCCC,-0.331

row,Sequence,PBM E-score
1,ACCTCTGG,-0.155
2,GTGATAAC,-0.141
3,ACAAATCA,0.239
4,AGAGATGG,-0.121
5,CCCCAGGG,-0.175
6,TAGAGAGA,0.0957
7,GGATCACA,0.0846
8,GCGTCGCC,-0.296
9,CAATTGCC,-0.16
10,CACCGCCA,0.0383
11,CTCCAACC,-0.114
12,ATGCCCAC,-0.213
13,CGGTTCTA,0.00584
14,CTAGTCAA,0.383
15,GGGTAGAC,-0.0104
16,CGGCCAAG,-0.251
17,ACCATGAT,0.217
18,TTGGCAAA,0.124
19,TAATGGCA,-0.172
20,CTCTTGCA,0.00318
21,ATCTCACC,-0.0478
22,ACCTTGAC,0.0835

row,Sequence,PBM E-score
1,ACATCCTC,-0.0135
2,CGCTCGCC,-0.158
3,CTCCGCGA,0.0481
4,AGTCTCCA,0.27
5,GGTGTGTA,0.158
6,CTGTATTC,0.0937
7,GCTCAAGA,-0.0264
8,CCATTGCC,-0.138
9,CCGAATCC,-0.186
10,CCGATGAG,0.165
11,ACGCTAAT,0.0724
12,ACAGTGCT,-0.0394
13,ATCTCAAT,0.199
14,CAGGACGG,-0.187
15,AGTCACTG,0.457
16,CTCCTTAA,0.223
17,GGCTGGAC,-0.111
18,ATTTAAAC,0.181
19,ACGAACTC,0.124
20,ATATGTCG,0.0539
